# Experimental data reported in the supplement of paper PMC4604168 (melanoma cell lines).
# The list shows a part of the results. Repeats are few or missing, and single values can be far off.
# Test system: COLO829
# Test: cell count relative to DMSO control; melanoma cells; higher = more viable cells
# Settings: library dose: low library concentration; 72 h
# 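Further: cell number obtained by counting DAPI-stained nuclei in high-throughput microscope images with image analysis software, screen run in 1,536-well plates.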
row,Structure (SMILES),cell count [%]
1,"Cc1cc(N2CCOCC2)cc2[nH]c(-c3c(NC[C@@H](O)c4cccc(Cl)c4)cc[nH]c3=O)nc12 + O=C(Oc1ccc([N+](=O)[O-])cc1)N1CCC(C(O)(c2ccc3c(c2)OCO3)c2ccc3c(c2)OCO3)CC1 [JZL184] (first compound 0.2 µM, partner dose 1 µM)",107
2,"COc1cc2c(Oc3ccc4[nH]c(C)cc4c3F)ncnc2cc1OCCCN1CCCC1 [cediranib] + O=C(Oc1ccc([N+](=O)[O-])cc1)N1CCC(C(O)(c2ccc3c(c2)OCO3)c2ccc3c(c2)OCO3)CC1 [JZL184] (first compound 0.4 µM, partner dose 1 µM)",122
3,"CCN(CC)CCNC(=O)c1c(C)[nH]c(/C=C2\C(=O)Nc3ccc(F)cc32)c1C [sunitinib] + C[As](C)SC[C@H](NC(=O)CC[C@H](N)C(=O)O)C(=O)NCC(=O)O [Darinaparsin] (first compound 0.4 µM, partner dose 0.4 µM)",94.3
4,"COc1ccc2c(c1)CCC1C2CCC2(C)C(NCCCCCCN3C(=O)C=CC3=O)CCC12 (stereo not given) + C/C(O)=C(\C#N)C(=O)Nc1cc(Br)ccc1Br [LFM-A13] (first compound 0.4 µM, partner dose 2 µM)",86.8
5,"COc1cc2c(Oc3ccc4[nH]c(C)cc4c3F)ncnc2cc1OCCCN1CCCC1 [cediranib] + Cc1cc(SCc2sc(-c3ccc(C(F)(F)F)c(F)c3)nc2C)ccc1OCC(=O)O [GW0742] (first compound 0.4 µM, partner dose 2 µM)",97.9
